{"source": "PubChem BioAssay AID1345083", "about": "(National Center for Advancing Translational Sciences (NCATS), 2018)", "note": "Hit rate of the full screen: of about 94,000 compounds, about 6,200 (6.6%) were called active. Inconclusive means that the source gave no clear call. Such entries were picked first, then a sample of the others. Calls follow the shape of the dose curve; as a rule, active = well fitted inhibition curve with a large enough effect; inconclusive = small, poorly fitted or top-dose-only effect; inactive = flat fitted curve, though single readings scatter. Potencies of inconclusive entries are doubtful fits and often do not repeat. Potency is read from the fitted curve at half-maximal effect; tags tell the direction and shape of the fitted curve.", "data": [{"assay": "Cytotoxic Profiling in HEK 293 Cell Line of Diverse Libraries Using Quantitative High-Throughput Screening; also: nearly all actives have a fitted effect of over 60% in size", "conditions": "HEK 293 viability, ATP luminescence (CellTiter-Glo), 48-72 h; series mostly up to 115 µM", "how_it_was_run": "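Luminescence from cellular ATP, measured with CellTiter-Glo, indicates HEK 293 viability. Cells plated at 250 cells/well are treated with compound for 48 or 72 hr at 37 degree Celsius before reagent addition.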", "values": [{"compound": "CC(C)CN1C(=O)CO[C@H](c2ccc(NS(=O)(=O)c3cccc(F)c3)cc2)[C@H]1CO", "Potency": "inconclusive: 39.8 µM [inhibitor, partial curve, poor fit]"}, {"compound": "COc1ccc(-c2nnc([C@H]3CCN(Cc4ccccc4Cl)C3)o2)cc1", "Potency": "inconclusive: 100 µM [inhibitor, partial curve, poor fit]"}, {"compound": "O=C(Cn1ccn2nc(-c3ccccc3)c(CO)c2c1=O)Nc1ccc(F)c(F)c1", "Potency": "inconclusive: 56.2 µM [inhibitor, single point]"}, {"compound": "Cc1cnc(C2CCC2)n1CC1CCN(C(=O)CCc2ccccc2)CC1", "Potency": "inconclusive: 89.1 µM [inhibitor, single point]"}, {"compound": "Cn1nccc1C(=O)N1CCC2(CC1)OC(=O)N(CCOc1ccccc1)C2(C)c1cccnc1", "note": "(stereo not given)", "Potency": "inactive"}, {"compound": "O=C(Nc1ccc(Cl)cc1Cl)c1cccn2cncc12", "Potency": "inconclusive: 126 µM [inhibitor, partial curve, poor fit]"}, {"compound": "CCOC(=O)C1(Cc2cccc(OC)c2)CCCN(C(=O)CSc2ccncc2)C1", "note": "(stereo not given)", "Potency": "active: 28.2 µM"}, {"compound": "O=C(c1ccoc1)N1CCCN(c2cc(-c3ccc(Cl)cc3)[nH]n2)CC1", "Potency": "inconclusive: 56.2 µM [inhibitor, partial curve, poor fit]"}, {"compound": "Cc1ncccc1C(=O)N1CCC2(CC1)CC(N(Cc1ccc(F)cc1)C1CC1)CCO2", "note": "(stereo not given)", "Potency": "inconclusive: 79.4 µM [inhibitor, partial curve, poor fit]"}, {"compound": "CN(c1ccccc1)c1cc(=O)c2ccnc(Nc3cccc([S+](C)(=O)[O-])c3)c2o1", "Potency": "active: 100 µM"}, {"compound": "COc1ccc(Cc2ncc3c(n2)CN(C(=O)c2ccc(F)c(C)c2)C3)cc1", "Potency": "inconclusive: 56.2 µM [inhibitor, partial curve, poor fit]"}, {"compound": "CCN(CC)Cc1ccc2c(c1)CN(C(=O)c1cncc(Br)c1)CCO2", "Potency": "inactive"}, {"compound": "CC(C)NC(=O)N1CCC(N2C(=O)C3(CCCC3)C2c2ccccc2)CC1", "note": "(stereo not given)", "Potency": "inconclusive: 100 µM [inhibitor, single point]"}, {"compound": "Cc1nc(N2CCC(N[C@H]3Cc4ccccc4[C@@H]3N)CC2)c2ccsc2n1", "Potency": "inconclusive: 89.1 µM [inhibitor, single point]"}, {"compound": "CC(C)Cc1cc(C(=O)N2CCC3(CC2)Nc2ccccc2NC3=O)n[nH]1", "Potency": "inconclusive: 50.1 µM [inhibitor, partial curve, poor fit]"}, {"compound": "CCC(=O)N1Cc2ccccc2CC2(CCCCN2CC)C1", "note": "(stereo not given)", "Potency": "inconclusive: 112 µM [inhibitor, partial curve, poor fit]"}, {"compound": "COc1ccccc1-c1ccc(C(=O)N2CCC(C(=O)NCCSC)CC2)cc1", "Potency": "inconclusive: 31.6 µM [inhibitor, partial curve, poor fit]"}, {"compound": "CCC(C)NC(=O)N1CC(Oc2ccc(-c3nc(C)no3)cc2)C1", "note": "(stereo not given)", "Potency": "inconclusive: 39.8 µM [inhibitor, partial curve, poor fit]"}, {"compound": "CNC(=O)CCn1ncc2cc(OCc3ccccc3-c3ccc(F)cc3F)ccc21", "Potency": "active: 79.4 µM"}, {"compound": "O=C1CCN(CC(O)COc2ccccc2)c2ccc(F)cc2CN1C1CCCC1", "note": "(stereo not given)", "Potency": "inconclusive: 50.1 µM [inhibitor, partial curve, poor fit]"}, {"compound": "CCN(CCn1cccn1)C(=O)c1ccc2nc(-c3ccc(F)cc3)cn2c1", "Potency": "inconclusive: 89.1 µM [inhibitor, single point]"}, {"compound": "CNC(=O)CNC(=O)c1cccc(-c2ccc(C(F)(F)F)cc2)c1", "Potency": "inconclusive: 112 µM [inhibitor, partial curve, poor fit]"}, {"compound": "CC(=O)N1CCC(C(=O)N2CCC(c3nc4ncccc4[nH]3)CC2)CC1", "Potency": "inactive"}, {"compound": "COc1cc(F)ccc1-c1cc(C(=O)NCc2cnn(C)c2)c2c(c1)N(C)CCO2", "Potency": "inactive"}, {"compound": "CC(C)N1C[C@H](C(=O)NCCc2ccccc2)[C@H](C(=O)O)C1", "Potency": "inactive"}, {"compound": "Cc1ccc(CNC(=O)N2CCCCCCNC(=O)[C@@H]3CCCC[C@@H]32)cc1", "Potency": "inconclusive: 63.1 µM [inhibitor, partial curve, poor fit]"}, {"compound": "CCC1(N2CCN(S(=O)(=O)c3cc(F)ccc3C)CC2)CCN(C(=O)NC)C1", "note": "(stereo not given)", "Potency": "inconclusive: 56.2 µM [inhibitor, partial curve, poor fit]"}, {"compound": "O=C(Cc1cccc(Cl)c1)N1CCC2(CC1)N(c1ccccc1)C(=O)CS2(=O)=O", "Potency": "inactive"}, {"compound": "Cc1cccc(NC(=O)c2ccc3c(c2)N(C)C2CCCN2C3=O)c1C", "note": "(stereo not given)", "Potency": "inactive"}, {"compound": "COc1ccc(C(=O)N2CCC3(CC2)N=C(c2ccc(Cl)cc2)NO3)cc1F", "Potency": "inconclusive: 35.5 µM [inhibitor, partial curve, poor fit]"}, {"compound": "CCc1noc(-c2cn(C3CCN(C(=O)c4cccs4)C3)nn2)n1", "note": "(stereo not given)", "Potency": "inconclusive: 56.2 µM [inhibitor, single point]"}, {"compound": "Cc1cccc(OCC(=O)N[C@@H]2CN(c3ncccn3)C[C@H]2CN(C)C)c1", "Potency": "inactive"}, {"compound": "COc1ccc(OC)c([S+](=O)([O-])c2nnn3c2nc(N2CCCCC2)c2ccccc23)c1", "Potency": "inconclusive: 39.8 µM [inhibitor, partial curve]"}, {"compound": "N#Cc1ccc(CN2C[C@@H](COCC(N)=O)[C@H](c3ccncc3)C2)cc1", "Potency": "active: 89.1 µM"}, {"compound": "Cc1cc(F)ccc1-c1[nH]nc2ncc(-c3ccccc3)nc12", "Potency": "inconclusive: 89.1 µM [inhibitor, partial curve]"}, {"compound": "CN1CC(=O)N(C2CCCC2)Cc2c(NC3CCNCC3)ncnc21", "Potency": "inactive"}, {"compound": "CSc1cccc(NC(=O)N2C[C@H](c3nc(-c4ccncc4)no3)[C@@H](C)C2)c1", "Potency": "inconclusive: 44.7 µM [inhibitor, partial curve, poor fit]"}, {"compound": "O=C(Nc1cnc(-c2cccnc2)nc1)C1CCCC1", "Potency": "inactive"}, {"compound": "COc1ccc(NC(=O)c2cn3ccnc(-c4ccc(F)cc4)c3n2)cc1OC", "Potency": "inconclusive: 7.94 µM [inhibitor, full curve, poor fit]"}, {"compound": "Cc1c(Cl)c(C(=O)N[C@H]2[C@@H]3CCO[C@@H]3[C@@H]2C2CCCC2)nn1C", "Potency": "inactive"}, {"compound": "O=C(COc1ccc(F)cc1)N1CCC2(CCCCO2)CC1", "Potency": "inactive"}, {"compound": "CCOC(=O)C1=C(C)N=C2SC=C(CC(=O)N3CCCCC3)N2C1c1cccc(OC)c1", "note": "(stereo not given)", "Potency": "inconclusive: 28.2 µM [inhibitor, partial curve]"}, {"compound": "Cc1nn(-c2ccccc2)c(C)c1CN1CCC2(Cc3ccccc3CNC2=O)C1", "note": "(stereo not given)", "Potency": "inconclusive: 56.2 µM [inhibitor, partial curve, poor fit]"}, {"compound": "CC(C)CC(=O)N1CCc2[nH]nc(C(=O)NCCCc3ccccc3)c2C1", "Potency": "inconclusive: 44.7 µM [inhibitor, partial curve, poor fit]"}, {"compound": "CC(C)(C)C(=O)NC[C@H]1O[C@H](Cc2cc(COc3ccccc3)on2)CC[C@@H]1O", "Potency": "inconclusive: 100 µM [inhibitor, partial curve, poor fit]"}, {"compound": "Cc1cc(C)n(Cc2cccc(C(=O)N3Cc4ccccc4C(O)C3)c2)n1", "note": "(stereo not given)", "Potency": "inconclusive: 28.2 µM [inhibitor, full curve]"}, {"compound": "COc1cc(OC)c(NC(=O)CCn2ccn3nc4c(c3c2=O)CCCC4)cc1Cl", "Potency": "inactive"}, {"compound": "O=C(Nc1cc(F)cc(F)c1)Nc1cccc(-c2ccc(N3CCOCC3)nn2)c1", "Potency": "active: 31.6 µM"}, {"compound": "N[C@H]1CCC[C@@H](C(=O)NCc2nc(-c3cccc(F)c3)c(-c3ccccn3)[nH]2)C1", "Potency": "inconclusive: 89.1 µM [inhibitor, single point]"}, {"compound": "CCNC(=O)c1ccc2c(c1)OCCN(c1cccc(OC(F)(F)F)c1)C2", "Potency": "inconclusive: 7.94 µM [inhibitor, full curve, poor fit]"}, {"compound": "Cn1ccc(CN2CCC3(C2)NC(=O)c2ccccc2CO3)c1", "note": "(stereo not given)", "Potency": "inconclusive: 126 µM [inhibitor, single point]"}, {"compound": "CC(C)[C@]1(O)CN(C(=O)Cc2ccc(F)cc2F)C[C@H]1C", "Potency": "inactive"}, {"compound": "FC(F)(F)c1ccc2c(c1)nc1n2[C@@H](CNC2CCC2)COC1", "Potency": "inactive"}, {"compound": "Cn1ncc2c(C(=O)NCC3CC3)cc(-c3ccc(C(F)(F)F)cc3)nc21", "Potency": "active: 31.6 µM"}, {"compound": "COc1ccc(C2Cn3nnc(-c4nc(C5CC5)no4)c3CO2)cc1", "note": "(stereo not given)", "Potency": "inactive"}, {"compound": "CC(C)CCC(=O)N1CCc2nc(N3CCN(C)CC3)sc2C1", "Potency": "inconclusive: 39.8 µM [inhibitor, partial curve, poor fit]"}, {"compound": "COc1ccc(S(=O)(=O)N2C[C@@H](F)[C@@H](OCc3nc4ccccc4o3)C2)cc1", "Potency": "inconclusive: 89.1 µM [inhibitor, partial curve, poor fit]"}, {"compound": "Cn1nnc(-c2cccc(NC(=O)C[C@H]3NC(=O)c4ccccc4NC3=O)c2)n1", "Potency": "inconclusive: 39.8 µM [inhibitor, full curve, poor fit]"}, {"compound": "O=C(CC1=C2CCCCC2N(Cc2ccc(F)cc2)C1=O)Nc1ccc(F)cc1", "note": "(stereo not given)", "Potency": "inconclusive: 56.2 µM [inhibitor, partial curve, poor fit]"}, {"compound": "Cc1ccc(CN2CCC(N3CC4CCCN4C3=O)CC2)cc1", "note": "(stereo not given)", "Potency": "inactive"}, {"compound": "CCCc1sc(NC(=O)CC[C@H]2NC(=O)c3ccccc3NC2=O)nc1C(=O)OC", "Potency": "inconclusive: 79.4 µM [inhibitor, partial curve, poor fit]"}, {"compound": "COCc1nc(-c2nc3c([nH]2)CC(c2ccc(Cl)cc2)CNC3=O)no1", "note": "(stereo not given)", "Potency": "inactive"}, {"compound": "O=C(NCc1ccc2c(c1)OCO2)c1nc(-c2ccsc2)c2ccccn12", "Potency": "inconclusive: 89.1 µM [inhibitor, single point]"}, {"compound": "CC(C)C(=O)NC1CCN(c2cnn(Cc3ccccc3)c(=O)c2)CC1", "Potency": "inactive"}, {"compound": "Cc1cccc(N2CCN(C(=O)c3noc(-c4ccc5c(c4)OCO5)n3)CC2)c1C", "Potency": "inconclusive: 89.1 µM [inhibitor, single point]"}]}]}
